According to PubChem BioAssay AID1645882 (National Center for Advancing Translational Sciences (NCATS), 2021):
Among all 16,000 compounds or so, about 120 (0.75%) were called active. Not shown: some 4% with an inconclusive outcome. Calls follow the shape of the dose curve; as a rule, active = well fitted inhibition curve with a large enough effect; inconclusive = small, poorly fitted or top-dose-only effect; inactive = no such curve, though single readings can be large or run the other way. The list shows a part of the results.

What follows are compounds tested against Rap guanine nucleotide exchange factor 3 (Homo sapiens) (UniProt O95398) (assay: Validation qHTS for antagonist of cAMP-regulated guanine nucleotide exchange factor 3 (EPAC1)). Details: EPAC1 Rap1B-BODIPY-GDP exchange, fluorescence; series mostly up to 150 µM; activity change, negative = inhibition: at the top concentration.
How it was run: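 Nucleotide exchange followed as fluorescence loss when BODIPY-GDP leaves Rap1B (480 nm excitation, 540 nm emission), read at 5 min intervals over 30 min. Reaction: 100 nM EPAC1, 250 nM RAP1B-BODIPY-GDP, 50 uM GDP; ATA and DMSO define normalization.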
Also: nearly all actives have a fitted effect of over 75% in size.
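For activity change, negative = inhibition in this document: plate controls were DMSO for no effect and ATA control for full effect.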
Potency is read from the fitted curve at half-maximal effect.

Sequence of UniProt O95398 (O95398 whole entry, looked up): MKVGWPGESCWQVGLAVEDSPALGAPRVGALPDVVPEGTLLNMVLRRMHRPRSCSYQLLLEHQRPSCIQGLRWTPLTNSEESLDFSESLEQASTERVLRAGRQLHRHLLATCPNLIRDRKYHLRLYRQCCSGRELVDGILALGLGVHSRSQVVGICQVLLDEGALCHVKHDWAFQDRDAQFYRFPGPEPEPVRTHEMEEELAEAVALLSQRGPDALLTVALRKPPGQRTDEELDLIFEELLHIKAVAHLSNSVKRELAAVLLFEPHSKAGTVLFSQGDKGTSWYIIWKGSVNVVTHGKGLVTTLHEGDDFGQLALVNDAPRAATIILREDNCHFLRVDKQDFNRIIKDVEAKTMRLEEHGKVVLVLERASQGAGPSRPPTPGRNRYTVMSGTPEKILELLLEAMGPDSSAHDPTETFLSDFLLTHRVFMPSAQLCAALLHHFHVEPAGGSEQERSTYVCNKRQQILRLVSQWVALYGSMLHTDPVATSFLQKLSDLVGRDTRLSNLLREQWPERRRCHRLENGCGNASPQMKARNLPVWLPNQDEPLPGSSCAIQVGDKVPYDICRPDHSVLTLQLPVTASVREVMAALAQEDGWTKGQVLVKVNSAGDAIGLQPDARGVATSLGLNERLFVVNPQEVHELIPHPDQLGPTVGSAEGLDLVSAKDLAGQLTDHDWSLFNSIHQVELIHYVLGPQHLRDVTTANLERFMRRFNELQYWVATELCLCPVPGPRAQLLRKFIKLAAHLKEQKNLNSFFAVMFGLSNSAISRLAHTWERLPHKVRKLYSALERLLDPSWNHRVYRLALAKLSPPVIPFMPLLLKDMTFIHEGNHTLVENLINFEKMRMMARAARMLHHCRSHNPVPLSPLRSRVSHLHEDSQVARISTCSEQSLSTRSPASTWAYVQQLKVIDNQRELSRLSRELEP

| SMILES | activity change, negative = inhibition | Potency |
| --- | --- | --- |
| CCC1(C2CCN(C(=O)c3coc4c3C(=O)CCC4)CC2)NC(=O)N(CCc2scnc2C)C1=O (stereo not drawn) | inactive: 11.2% |  |
| COc1ccc(CN2CC[C@H]3C=CC[C@@H](C(=O)NCCc4ccccc4)[C@H]3C2=O)cc1OC | inactive: 3.44% |  |
| O=C1CCc2cc(OCCCCc3nnnn3C3CCCCC3)ccc2N1 | inactive |  |
| Cc1noc(C)c1-c1nc(NC2CCNCC2)c2ccccc2n1 | inactive: -0.308% |  |
| CCS(=O)(=O)CCn1c([N+](=O)[O-])cnc1C | inactive |  |
| N#Cc1cccc(-c2ccc3ncnc(NCc4ccccc4)c3c2)c1 | inactive: -13.9% |  |
| COc1cc(OC)c2c(c1)OC(c1ccccc1)CC2=O (stereo not drawn) | inactive: 2.39% |  |
| CC[C@H]1OC(=O)[C@H](C)C(=O)[C@H](C)[C@@H](O[C@@H]2O[C@H](C)C[C@H](N(C)C)[C@H]2O)[C@](C)(OC)C[C@@H](C)C(=O)[C@H](C)[C@H]2N(CCCCn3cnc(-c4cccnc4)c3)C(=O)O[C@]12C | inactive |  |
| COC(=O)c1ccc(CN2CCOc3ccc(CN4CCC(O)(c5cccnc5)CC4)cc3C2)cc1 | inactive: 13.8% |  |
| CCCCOc1cc(C(=O)NCCN(CC)CC)c2ccccc2n1 | inactive |  |
| NC(N)=NCC1COC2(CCCCC2)O1 (stereo not drawn) | inactive: 13.1% [at 75.8 µM] |  |
| Cn1c(=O)c(-c2ccc(F)cc2)nc2cnc(Nc3ccccc3)nc21 | inactive: 8.41% |  |
| C/C(=C(\CCOC(=O)c1ccccc1)SS/C(CCOC(=O)c1ccccc1)=C(/C)N(C=O)Cc1cnc(C)nc1N)N(C=O)Cc1cnc(C)nc1N | inactive: 15.1% |  |
| CC(=O)OCC1OC(n2cnc3c(=O)[nH]cnc32)C(OC(C)=O)C1OC(C)=O (stereo not drawn) | inactive: 20.2% |  |
| COc1ccc(-c2nc3cnc(Nc4ccccc4)nc3n(CCC#N)c2=O)cc1 | inactive: 90.9% |  |
| CC(C)=CCC/C(C)=C\COc1c2ccoc2cc2oc(=O)ccc12 | inactive: -12% |  |
| O=C(NCCc1ccncc1)c1cnn(-c2ncc3c(n2)-c2ccccc2CCC3)c1C1CC1 | inactive: 9.65% |  |
| COc1cc(C(=O)Oc2ccc3c(OC)c4ccoc4nc3c2OC)cc(OC)c1OC | inactive: 7.56% |  |
| COC(=O)CC1[C@@]2(C)C[C@]34OC5(C)OC6(C7CC(=O)OC(c8ccoc8)[C@]7(C)CCC6(O5)[C@]13C)C(OC(C)=O)[C@]4(OC(C)=O)C2OC(C)=O (stereo partly drawn) | inactive: 20% |  |
| COc1ccc(NC(=O)N2CC[C@@]3(CCCN(C(=O)c4ccc(OC)cc4)C3)C2)cc1 | inactive: 34.9% |  |
| CC/C=C\C/C=C\C/C=C\C/C=C\C/C=C\CCCCCC(=O)O | inactive: 10.9% [at 15.3 µM] |  |
| COc1ccc(C(=O)N2CCC[C@@]3(CCN(C(=O)Nc4ccccc4)C3)C2)cc1 | inactive: 3.45% |  |
| CCC1(C2CCN(C(=O)c3cc(C)cc(C)c3)CC2)NC(=O)N(CCc2scnc2C)C1=O (stereo not drawn) | inactive: 10.1% |  |
| O=C(c1ccncc1)N1CCC2(CC1)CN(c1ccccc1)C2 | inactive: 2.82% |  |
| COC(=O)[C@@H]1[C@H]2C[C@H]3c4[nH]c5ccccc5c4CCN3C[C@@H]2CC[C@@H]1O | inactive |  |
| C[C@]12C=CC(=O)C=C1CC[C@@H]1[C@@H]2[C@@H](O)C[C@@]2(C)[C@H]1CC[C@]2(O)C(=O)COC(=O)CCC(=O)O | inactive: 50% |  |
| Cc1cnc(SCCN2CCOCC2)nc1C1CCCN(C(=O)c2cccc3c(C)c(C)[nH]c23)C1 (stereo not drawn) | inactive: 15.4% |  |

| SMILES | activity change, negative = inhibition | Potency |
| --- | --- | --- |
| COc1ccc(-n2c(=O)c(CCc3ccccc3)nc3cnc(N(C)C)nc32)cc1 | inactive: 15% |  |
| CCC(C)n1ncn(-c2ccc(N3CCN(c4ccc(OC[C@H]5CO[C@](Cn6cncn6)(c6ccc(Cl)cc6Cl)O5)cc4)CC3)cc2)c1=O (stereo partly drawn) | inactive: -6.01% |  |
| NC(Cc1ccc(O)c(O)c1)C(=O)O (stereo not drawn) |  | active: 50.1 µM |
| NC(=O)CC[C@@H]1NC(=O)[C@H](Cc2ccccc2)NC(=O)[C@H](Cc2ccc(O)cc2)NC(=O)CCSSC[C@@H](C(=O)N2CCC[C@H]2C(=O)N[C@@H](CCCN=C(N)N)C(=O)NCC(N)=O)NC(=O)[C@H](CC(N)=O)NC1=O | inactive |  |
| COc1ccccc1-c1ccnc(-n2ncc(C(=O)NCc3ccncc3)c2C)n1 | inactive: 13.4% |  |
| NCC[C@H](O)C(=O)N[C@@H]1C[C@H](N)[C@@H](O[C@H]2O[C@H](CN)CC[C@H]2N)[C@H](O)[C@H]1O[C@H]1O[C@H](CO)[C@@H](O)[C@H](N)[C@H]1O | inactive: 10.9% |  |
| O=Cc1ccccc1-c1cn(CN2C(=O)c3ccccc3C2=O)nn1 | inactive: -6.83% |  |
| COc1ccc(NC(=O)N2CCCC3(CCN(S(=O)(=O)c4ccccc4)CC3)C2)cc1 | inactive: 11.8% |  |
| COC(=O)C(CN)c1c[nH]c2ccc(OC)cc12 (stereo not drawn) | inactive: -0.266% |  |
| CC1(C)NC(=O)N(c2ccc([N+](=O)[O-])c(C(F)(F)F)c2)C1=O | inactive |  |
| CCn1c(-c2ccccc2F)nc2cc(NC(C)=O)cc(C(=O)N3CCNC(=O)C3CC(=O)OC)c21 (stereo not drawn) | inactive: 17.7% |  |
| CCN1C(=O)CC(CC(=O)N2CCCCC2c2nccs2)(c2ccccc2C)C1=O (stereo not drawn) | inactive: 21.4% |  |
| Cc1cnc(SCc2ccccn2)nc1C1CCCN(C(=O)c2scc3c2CCCC3)C1 (stereo not drawn) | inactive: -3.8% |  |
| COc1cccc(Nc2ncc3nc(C)c(=O)n(-c4ccccc4)c3n2)c1 | inactive: -16.7% |  |
| COc1ccc(C(=O)N2CCOc3ccc(CN4CCN(c5ccccn5)CC4)cc3C2)o1 | inactive: 5.62% |  |
| O=S1(=O)CCOCCCN1Cc1cccc(C(F)(F)F)c1 | inactive: 15.4% |  |
| CC(=O)N1CCC[C@@]2(CCN(Cc3nccs3)C2)C1 | inactive: 21.3% |  |
| O=C(CCCN1CCC(C(=O)c2ccc(F)cc2)CC1)c1ccc(F)cc1 | inactive: 6.23% |  |
| Cc1ccn(CCC(=O)NCC2Cc3cc(Cl)cc(-c4ccc5[nH]ccc5c4)c3O2)n1 (stereo not drawn) | inactive: 11% |  |
| CCOC(=O)C(=O)C1(C(=O)OCC)Oc2cc(OC)cc(OC)c2C(=O)C1c1ccccc1 (stereo not drawn) | inactive: 1.68% |  |
| CC[C@@H](C)[C@@H](CO[C@@H](Cc1ccccc1)C(=O)N[C@@H](CCS(C)(=O)=O)C(=O)OC(C)C)NC[C@@H](N)CS | inactive: 27.9% |  |
| COCCn1c(=O)c(-c2cccc(C#N)c2)nc2cnc(Oc3cccc(Cl)c3)nc21 | inactive: 10.3% |  |
| COC(=O)c1ccc(C(=O)NCC2Cc3cccc(-c4ccc(C(=O)OC)cn4)c3O2)cc1 (stereo not drawn) | inactive: 8.75% |  |
| CC(=O)N[C@@H]([C@@H](O)[C@H](O)[C@H](O)CO)[C@@H](O)CC(=O)C(=O)O | inactive: 10.8% |  |
| COc1ccc(CN2CCC3(CC2)c2ccccc2[C@@H](NC(=O)c2ccsc2)[C@@H]3OC)cc1O | inactive: 1.92% |  |
| COc1cccc(CNc2ccc3nc(-c4ccc(N)cc4)c(OC)n3n2)c1 | inactive |  |
